PubChem BioAssay AID2675 (National Center for Advancing Translational Sciences (NCATS), 2010)
Hit rate of the full screen: of about 280,000 compounds, about 100 (0.036%) were called active. Inconclusive results, whose numbers are uncertain, are shown with a selection of clear calls. Calls follow the shape of the dose curve; as a rule, active = well fitted inhibition curve with a large enough effect in the signal ratio, with a control signal flat (not every such curve was filed as active); inconclusive = small, poorly fitted or top-dose-only effect, or effect the other way, or a change in a side signal; inactive = no such curve, though single readings can be large or run the other way; the % refers to the signal ratio. Potencies of inconclusive entries are doubtful fits and often do not repeat. “Side channel” marks fits to a control or component signal instead of the main read-out.

Biological target: Muscleblind-like protein 1 (Homo sapiens) (UniProt Q9NR56)
Sequence of UniProt Q9NR56 (Q9NR56 whole entry, looked up): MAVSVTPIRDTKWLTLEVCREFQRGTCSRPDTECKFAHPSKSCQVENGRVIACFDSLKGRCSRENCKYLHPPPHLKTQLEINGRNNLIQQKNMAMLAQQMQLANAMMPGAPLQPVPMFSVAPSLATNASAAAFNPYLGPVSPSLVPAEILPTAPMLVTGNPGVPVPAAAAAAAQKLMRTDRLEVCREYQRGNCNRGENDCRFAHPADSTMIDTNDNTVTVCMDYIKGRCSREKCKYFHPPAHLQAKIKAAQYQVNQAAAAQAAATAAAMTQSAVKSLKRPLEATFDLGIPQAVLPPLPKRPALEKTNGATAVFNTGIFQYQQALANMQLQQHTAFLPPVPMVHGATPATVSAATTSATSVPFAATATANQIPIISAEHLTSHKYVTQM
Assay: qHTS Assay for Inhibitors of MBNL1-poly(CUG) RNA binding
Conditions: TR-FRET MBNL1-His/biotin-(CUG)12 binding, 665/545 ratio; series mostly up to 57.5 µM
Summary of the method: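 Inhibition of protein-RNA binding appears as loss of TR-FRET between terbium anti-His antibody on MBNL1-His and streptavidin-XL665 on biotin-(CUG)12. Activity is normalized to buffer-only and uninhibited-complex controls.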
Potency is read from the fitted curve at half-maximal effect; tags tell the direction and shape of the fitted curve or compound fluorescence and quenching.

SMILES | Potency
Cc1ccccc1C(=O)NC(=S)Nc1ccc2[nH]c(=O)[nH]c2c1 | inconclusive: 79.4 µM [inhibitor, single point]
CCc1ccc2nc3n[nH]c(N)c3cc2c1 | inconclusive: 12.6 µM [quencher, side channel, partial curve]
C/C(=N\NC(=O)c1cccs1)c1ccc(C(=O)O)s1 | inconclusive: 35.5 µM [quencher, side channel, single point]
CC(C)CCNC(=O)CCS(=O)(=O)c1cccc2nonc12 | inconclusive: 10 µM [quencher, partial curve]
Cc1cc(=O)[nH]c(SCc2ccccc2)n1 | inconclusive: 200 µM [inhibitor, partial curve]
CCN(CC)CCN(C)c1ccc(N2C(=O)C3CC=CCC3C2=O)cc1[N+](=O)[O-] (stereo not drawn) | inconclusive: 15.8 µM [quencher, side channel, partial curve]
Cc1cc(C(=O)N/N=C/c2c(CO)cnc(C)c2O)c2ccccc2n1 | inconclusive: 28.2 µM [quencher, side channel, partial curve]
COCCCNC(=O)c1ccc2c(=O)n(CC3CCCO3)c(=S)[nH]c2c1 (stereo not drawn) | inactive
COc1ccc(/C=N/NC(=O)c2ccncc2)cc1Cn1nc([N+](=O)[O-])c(Br)c1C | inconclusive: 20 µM [quencher, single point]
COc1ccccc1N(C(=O)CNC(=O)c1ccco1)C(C(=O)NC1CCCC1)c1ccncc1 (stereo not drawn) | inconclusive: 50.1 µM [inhibitor, single point]
COc1ccc(C)cc1NC(=O)CN(C)S(=O)(=O)c1ccc2c(c1)n(C)c(=O)c(=O)n2C | inconclusive: 35.5 µM [fluorescent, single point]
CCOC(=O)c1sc(NNC(=O)c2ccc(C)cc2)nc1C | inactive
Clc1ccccc1N/N=C/c1ccc2c(c1)OCO2 | inconclusive: 158 µM [inhibitor, partial curve]
COCCn1c(COC)nc2ccccc21 | inactive
CCOc1ncccc1C(=O)OCC(=O)c1cc(C)n(Cc2ccco2)c1C | inconclusive: 0.708 µM [fluorescent, side channel, single point]
CCN(CC)S(=O)(=O)c1ccc(C)c(NC(=O)COc2ccc3c(C)cc(=O)oc3c2)c1 | inactive
Cc1ccc(NC(=O)c2cc([N+](=O)[O-])ccc2NCc2cccnc2)cc1 | inconclusive: 15.8 µM [quencher, side channel, partial curve]
CCCN1CCC(NC(=S)Nc2ccc([N+](=O)[O-])cc2)CC1 | inconclusive: 17.8 µM [quencher, side channel, partial curve]
NC(=O)CC(NC(=O)c1ccc(Br)cc1)c1ccc(N2CCCCCC2)c([N+](=O)[O-])c1 (stereo not drawn) | inconclusive: 39.8 µM [quencher, side channel, single point]
O=C(CCN1C(=O)S/C(=C\c2ccccc2)C1=O)NCCCn1ccnc1 | inconclusive: 28.2 µM [quencher, single point]
COc1ccc(C(=O)/C=C/Nc2cccc(C)n2)cc1OC | inconclusive: 2.82 µM [quencher, side channel, full curve]

SMILES | Potency
O=C1CCCN1c1ccc(S(=O)(=O)Oc2ccc(Cl)cc2)cc1[N+](=O)[O-] | inconclusive: 17.8 µM [quencher, side channel, partial curve]
COc1ccc(CCNc2ccc(C(=O)O)cc2[N+](=O)[O-])cc1OC | inconclusive: 15.8 µM [quencher, partial curve]
Cc1cccc(N/N=C/c2ccc(O)c(O)c2O)c1 | inactive
CCN(CC)c1ccc(/C=N/NC(=O)c2c[nH]c3ccccc23)cc1 | inconclusive: 20 µM [quencher, side channel, single point]
CCc1cccc(NC(=O)CCS(=O)(=O)c2cccc3nonc23)c1 | inconclusive: 12.6 µM [quencher, partial curve]
O=C(c1cc(F)ccc1F)C1CCCN(C(=O)c2ccc3nccnc3c2)C1 (stereo not drawn) | inconclusive: 12.6 µM [quencher, side channel, partial curve]
Cc1ccc2c(c1)N(CC(=O)NCc1ccco1)C(=O)CO2 | inconclusive: 100 µM [inhibitor, single point]
CCn1c(SCC(=O)N2CCN(c3ccccc3)CC2)nnc1-c1c[nH]c2ccccc12 | inconclusive: 6.31 µM [quencher, side channel, full curve, poor fit]
Cc1cc(C)c(C#N)c(N2CCSCC2)n1 | inactive
Cc1nnc(SCC(=O)O)s1 | inconclusive: 200 µM [inhibitor, partial curve, poor fit]
O=C(CNS(=O)(=O)c1ccccc1)NCC(=O)OCc1ccc(Br)cc1 | inactive
CCc1ccccc1OCCOc1ccc(C)cc1OC | inactive
Cc1ccc2c(C)nc(Nc3nc(CSc4nc5ccccc5[nH]4)cc(=O)[nH]3)nc2c1 | inactive
Cc1ccc2nc(-c3ccc(NC(=S)NC(=O)CC(C)C)cc3)sc2c1 | inconclusive: 31.6 µM [fluorescent, side channel, single point]
Nc1nonc1-n1nnc(C(=O)N/N=C/c2cccs2)c1-c1ccc2c(c1)OCO2 | inconclusive: 14.1 µM [quencher, side channel, partial curve]
O=C(O)c1cccc(-c2nnn(Cc3ccccc3)n2)c1 | inactive
Cc1ccccc1CS(=O)(=O)CC1(O)CCN(C(=O)c2cccc(C(F)(F)F)c2)CC1 | inconclusive: 39.8 µM [quencher, side channel, single point]
Cc1ccc(C(=O)COC(=O)CNS(=O)(=O)c2ccccc2)cc1[N+](=O)[O-] | inconclusive: 12.6 µM [quencher, side channel, partial curve]
CCC12CN3CC(CC)(CN(C1)C3c1ccc([N+](=O)[O-])o1)C2=O (stereo not drawn) | inconclusive: 10 µM [quencher, side channel, partial curve]
Cc1c(Cl)ccc2c(C(N)=O)cc(-c3ccccn3)nc12 | inactive
COc1ccc(CC(NC(C)=O)C(=O)NC2CCN(c3ncccc3[N+](=O)[O-])CC2)cc1 (stereo not drawn) | inconclusive: 28.2 µM [quencher, side channel, partial curve]

SMILES | Potency
OCC(Cc1ccccc1)Nc1c2ccccc2nc2ccccc12 (stereo not drawn) | inconclusive: 15.8 µM [quencher, side channel, partial curve]
COC(=O)Oc1nsnc1N1CCOCC1 | inactive
O=C(CCN1C(=O)/C(=C/c2ccccc2Cl)SC1=S)NNC(=O)c1cccnc1 | inconclusive: 20 µM [quencher, side channel, partial curve]
CCOC(=O)CSc1cc(=O)n(C)c2cc(Cl)ccc12 | inactive
COc1ccccc1CN1CCc2c([nH]c3ccccc23)C1 | inactive
O=c1[nH]c2cc3c(cc2cc1CN(Cc1ccccc1)Cc1nnnn1Cc1ccco1)OCCO3 | inconclusive: 28.2 µM [quencher, side channel, partial curve]
Cc1ccc2c(c1)S/C(=C/c1ccc[n+](C)c1)N2CCO | inconclusive: 14.1 µM [quencher, side channel, partial curve]
COc1ccc(N(C)C(=O)C2CCCN2S(=O)(=O)c2cccc3nsnc23)cc1 (stereo not drawn) | inconclusive: 15.8 µM [quencher, side channel, partial curve]
CC1Sc2ccc(S(=O)(=O)N3CCC(C(=O)NCC(C)c4ccccc4)CC3)cc2NC1=O (stereo not drawn) | inactive
COc1cc(C(=O)OCCn2c(=O)c3c(ncn3CCN(C)C)n(C)c2=O)cc(OC)c1OC | inconclusive: 7.94 µM [fluorescent, side channel, full curve, poor fit]
Cc1oc(-c2ccc(Cl)cc2)nc1CS(=O)CC(=O)NC1CCCC1 (stereo not drawn) | inactive
CC(=O)c1sc(C(=O)O)c(-c2ccco2)c1-c1ccco1 | inconclusive: 39.8 µM [quencher, single point]
Nc1c(Cl)ncnc1N/N=C/c1ccc(O)cc1 | inconclusive: 22.4 µM [quencher, side channel, partial curve]
COCCN(CCOC)S(=O)(=O)c1ccc(C(=O)Nc2ccc([N+](=O)[O-])cc2OC)cc1 | inconclusive: 17.8 µM [quencher, side channel, partial curve]
COc1ccc(/C=C/c2nc3ccccc3c(=O)n2-c2cccc(C(=O)O)c2)cc1 | inconclusive: 20 µM [quencher, side channel, partial curve]
COc1ccc(-c2cc(=O)oc3cc(OC(C)C(=O)NC(Cc4c[nH]c5ccc(O)cc45)C(=O)O)ccc23)cc1 (stereo not drawn) | inconclusive: 15.8 µM [quencher, side channel, partial curve]
O=C(O)C1C2CCC(C2)C1C(=O)Nc1cccc([N+](=O)[O-])c1 (stereo not drawn) | inconclusive: 25.1 µM [quencher, side channel, partial curve]
CCOC(=O)c1cc2c(=O)n3ccccc3nc2n(CCCOC)c1=NC(C)=O | inconclusive: 3.98 µM [quencher, side channel, full curve]
Cc1csc(NC(=O)/C=C/c2ccc3c(c2)OCO3)n1 | inconclusive: 0.158 µM [quencher, side channel, full curve, poor fit]
COc1ccnc(CSC(N)=Nc2ccccc2C(F)(F)F)c1 | inactive
O=[N+]([O-])c1ccc(N2CCN(c3ccc(O)cc3)CC2)cn1 | inconclusive: 11.2 µM [quencher, side channel, partial curve]
